{
  "source": "PubChem BioAssay AID1721",
  "about": "(National Center for Advancing Translational Sciences (NCATS), 2009)",
  "note": "About 1,100 (0.38%) of roughly 290,000 compounds were called active. Inconclusive results, whose numbers are uncertain, are shown with a selection of clear calls. The call rests on the fitted dose curve; in most records, active means well fitted inhibition curve with a large enough effect; inconclusive means small, poorly fitted or top-dose-only effect, or another doubt; inactive means no such curve, though single readings can be large or run the other way. A potency beside an inconclusive call is a rough fit, not a confirmed value. On the % scale 0 is the no-effect control and ±100 the full control effect; potency means the concentration at half of the fitted maximal effect; tags describe the fitted curve by direction and shape.",
  "data": [
    {"molecular_target": "Pyruvate kinase (Leishmania mexicana) (UniProt Q27686)", "sequence (Q27686 whole entry, looked up)": "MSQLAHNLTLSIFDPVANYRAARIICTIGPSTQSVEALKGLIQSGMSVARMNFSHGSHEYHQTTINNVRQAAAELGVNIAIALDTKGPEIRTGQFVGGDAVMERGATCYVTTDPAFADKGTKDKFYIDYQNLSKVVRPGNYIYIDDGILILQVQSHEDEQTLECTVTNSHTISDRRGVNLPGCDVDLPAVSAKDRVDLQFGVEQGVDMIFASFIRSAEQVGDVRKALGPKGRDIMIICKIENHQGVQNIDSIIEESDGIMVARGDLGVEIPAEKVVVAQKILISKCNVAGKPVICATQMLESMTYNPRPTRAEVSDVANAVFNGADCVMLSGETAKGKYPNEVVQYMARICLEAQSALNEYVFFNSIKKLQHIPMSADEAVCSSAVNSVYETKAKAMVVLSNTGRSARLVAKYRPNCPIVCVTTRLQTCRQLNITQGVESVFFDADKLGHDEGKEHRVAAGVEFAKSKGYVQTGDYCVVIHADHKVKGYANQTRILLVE", "experiment": "qHTS Assay for Inhibitors of Leishmania Mexicana Pyruvate Kinase (LmPK)", "conditions": "purified LmPK, Kinase-Glo ATP luminescence, 1 h; activity change, negative = inhibition: at 57.5 µM (top of the series) unless noted", "outline": "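Purified LmPK (0.1 nM) converted ADP (0.1 mM) to ATP with PEP (0.5 mM) in imidazole buffer pH 7.2 with KCl and MgCl2, 1 h at room temperature. ATP was read by Kinase-Glo luminescence; data normalized to uninhibited and no-enzyme controls.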", "values": [
      {"compound": "CCCn1c(-c2ccc(F)cc2)n[nH]c1=S", "Potency": "inconclusive: 12.6 µM [falling, partial curve]"},
      {"compound": "CN(C1=C(N2CCCCC2)C(=O)c2ccccc2C1=O)c1ccccc1", "Potency": "inconclusive: 25.1 µM [falling, single point]"},
      {"compound": "CCOc1ccc2nc(N=Nc3c(O)[nH]c(=O)[nH]c3=O)sc2c1", "Potency": "inconclusive: 14.1 µM [falling, partial curve]"},
      {"compound": "Fc1ccc(-c2n[nH]c(=S)n2-c2ccc3c(c2)OCCO3)cc1", "Potency": "inconclusive: 7.08 µM [falling, partial curve]"},
      {"compound": "COCCn1c(C)cc(C(=O)CSc2nnc(C)s2)c1C", "Potency": "inconclusive: 15.8 µM [falling, partial curve]"},
      {"compound": "C=CCC1(CC=C)CCCN1C(=O)c1cc(COc2cccc(OC)c2)on1", "activity change, negative = inhibition": "inactive: 5.97%"},
      {"compound": "O=C(Nc1ccc(N2CCOCC2)cc1)c1cnsn1", "Potency": "inconclusive: 28.2 µM [falling, partial curve]"},
      {"compound": "c1ccc(CCN(Cc2ccccc2)C2CCN(C3CCCC3)CC2)cc1", "Potency": "inconclusive: 39.8 µM [falling, single point]"},
      {"compound": "COc1ccc(NS(=O)(=O)c2ccc(OCC(=O)N3CCCC3)cc2)cc1", "activity change, negative = inhibition": "inactive: -0.371%"},
      {"compound": "Cc1ccc(C(=O)NCCc2cccs2)cc1", "Potency": "inconclusive: 25.1 µM [falling, partial curve]"},
      {"compound": "O=C(N/N=C\\c1ccc2c(c1)OCO2)c1ccco1", "Potency": "active: 14.1 µM"},
      {"compound": "COc1ccc(C(CC(=O)c2ccccc2)S(=O)(=O)c2ccc(C)cc2)cc1", "note": "(stereo not given)", "Potency": "inconclusive: 15.8 µM [falling, partial curve]"},
      {"compound": "c1ccc2oc(C3=NNC(=NC4CC4)SC3)cc2c1", "Potency": "inconclusive: 20 µM [falling, partial curve]"},
      {"compound": "COc1ccc(NS(=O)(=O)c2ccc(N3CCOCC3)c(NC(=O)c3ccccc3Cl)c2)cc1", "activity change, negative = inhibition": "inactive: 2.75%"},
      {"compound": "Cc1nn(C(C)(C)C)c(OC(=O)c2ccc(Br)o2)c1Sc1ccccc1", "Potency": "inconclusive: 31.6 µM [falling, single point]"},
      {"compound": "COc1ccc(/C=C/C(=O)c2c(O)cc(C)oc2=O)c(OC)c1", "Potency": "active: 14.1 µM"},
      {"compound": "O=C(/C=C1\\C(=O)Nc2ccccc21)/C=C1\\C(=O)Nc2ccccc21", "Potency": "inconclusive: 28.2 µM [falling, partial curve]"},
      {"compound": "Fc1cccc(/C=N/Nc2ncnc3nc[nH]c23)c1", "Potency": "inconclusive: 25.1 µM [falling, partial curve]"},
      {"compound": "O=C(c1cccs1)N1CCc2ccccc21", "Potency": "inconclusive: 25.1 µM [falling, partial curve]"},
      {"compound": "CCCCN=Cc1c(C)[nH]n(-c2ccccc2)c1=S", "Potency": "inconclusive: 31.6 µM [falling, partial curve]"}
    ]}
  ]
}
